The record followed here is article PMC11649943.

B1: human WT mGluR6, complex-glycosylated form (band C) [modified: complex N-linked glycosylation (Endo H-resistant, band C); complex N-linked glycosylation (Endo H-resistant, band C)] [human] / human ELFN1 extracellular domain … (parent)
chain 1: GLARAAGSVRLAGGLTLGGLFPVHARGAAGRACGQLKKEQGVHRLEAMLYALDRVNADPELLPGVRLGARLLDTCSRDTYALEQALSFVQALIRGRGDGDEVGVRCPGGVPPLRPAPPERVVAVVGASASSVSIMVANVLRLFAIPQISYASTAPELSDSTRYDFFSRVVPPDSYQAQAMVDIVRALGWNYVSTLASEGNYGESGVEAFVQISREAGGVCIAQSIKIPREPKPGEFSKVIRRLMETPNARGIIIFANEDDIRRVLEAARQANLTGHFLWVGSDSWGAKTSPILSLEDVAVGAITILPKRASIDGFDQYFMTRSLENNRRNIWFAEFWEENFNCKLTSSGTQSDDSTRKCTGEERIGRDSTYEQEGKVQFVIDAVYAIAHALHSMHQALCPGHTGLCPAMEPTDGRMLLQYIRAVRFNGSAGTPVMFNENGDAPGRYDIFQYQATNGSASSGGYQAVGQWAETLRLDVEALQWSGDPHEVPSSLCSLPCGPGERKKMVKGVPCCWHCEACDGYRFQVDEFTCEACPGDMRPTPNHTGCRPTPVVRLSWSSPWAAPPLLLAVLGIVATTTVVATFVRYNNTPIVRASGRELSYVLLTGIFLIYAITFLMVAEPGAAVCAARRLFLGLGTTLSYSALLTKTNRIYRIFEQGKRSVTPPPFISPTSQLVITFSLTSLQVVGMIAWLGARPPHSVIDYEEQRTVDPEQARGVLKCDMSDLSLIGCLGYSLLLMVTCTVYAIKARGVPETFNEAKPIGFTMYTTCIIWLAFVPIFFGTAQSAEKIYIQTTTLTVSLSLSASVSLGMLYVPKTYVILFHPEQNVQKRKRSLKATSTVAAPPKGEDAEAHK
chain 2: DCWLIEGDKGFVWLAICSQNQPPYEAIPQQINSTIVDLRLNENRIRSVQYASLSRFGNLTYLNLTKNEIGYIEDGAFSGQFNLQVLQLGYNRLRNLTEGMLRGLGKLEYLYLQANLIEVVMASSFWECPNIVNIDLSMNRIQQLNSGTFAGLAKLSVCELYSNPFYCSCELLGFLRWLAAFTNATQTYDRMQCESPPVYSGYYLLGQGRRGHRSILSKLQSVCTEDSYAAEVVGPPRPASGRSQPGRSPPPPPPPEPSDMPCADDECFSGDGTTPLVALPTLATQAEARPLIKVKQLTQNSATITVQLPSPFHRMYTLEHFNNSKASTVSRLTKAQEEIRLTNLFTLTNYTYCVVSTSAGLRHNHTCLTICLPRLPSPPGPVPSPSTATHY

In this assay the parent is B1. The assay can be described thus: pull-down. The note with it: with human ELFN1 extracellular domain fused to Fc [human]; For TM mutants, four times more transfected cells were used; parent: 1; read off a plot.
With chain 1 R653C, the ratio to parent worked out at 0.22. To chain 1 Q673L belongs 0.38. Turning to chain 1 E757K, the ratio to parent came out at 0.43.
